Measured values published in US20260227416A1 (published 2026).

Legend:
[1] = target: T1, CD20 on SU-DHL4 cells (UniProt P11836); assay: cell-based or functional assay
T1 sequence (looked up): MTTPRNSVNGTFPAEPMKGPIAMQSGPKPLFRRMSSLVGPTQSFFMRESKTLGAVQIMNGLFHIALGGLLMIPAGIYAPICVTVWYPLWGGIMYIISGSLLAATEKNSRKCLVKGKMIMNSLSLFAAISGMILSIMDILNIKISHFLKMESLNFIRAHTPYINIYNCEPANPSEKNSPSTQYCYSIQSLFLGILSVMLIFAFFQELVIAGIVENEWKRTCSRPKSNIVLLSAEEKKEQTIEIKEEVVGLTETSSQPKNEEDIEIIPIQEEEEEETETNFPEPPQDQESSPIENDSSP

[2] = target: T1, CD20 on SU-DHL4 cells; assay: binding to SU-DHL4 cells with high CD20 copy number, antibody titrated up to 10 µg/mL; method of detection not stated

B1: Rituximab-Mod (modified Rituximab antibody with added PrDs) (antibody, part only; not given: light chain, part only)
heavy: VQLQQPGAELVKPGASVKMSCKASGYTFTSYNMHWVKQTPGRGLEWIGAIYPGNGDTSYNQKFKGKATLTADKSSSTAYMQLSSLTSEDSAVYYCARSTYYGGDWYFNVWGAGTTVTVSAASTKGPSVFPLAPSSKSTSGGTAALGCLVKDYFPEPVTVSWNSGALTSGVHTFPAVLQSSGLYSLSSVVTVPSSSLGTQTYICNVNHKPQNQNQNQNQNQNQNSNTKVDKKA[human IgG1 Fc not spelt out]QNQNQNQNQNQNQN
For B1, the EC50 values of target cell killing (ADCC, SU-DHL4 target cells) [1] was 0.1 ng/mL and the maximal binding intensity, fold over rituximab (times (relative to rituximab)) [2] was > 2.
